# Measurements from PubChem BioAssay AID485294 (National Center for Advancing Translational Sciences (NCATS), 2010).
# The campaign covered roughly 370,000 compounds. About 150 (0.041%) were called active. Inconclusive results, whose numbers are uncertain, are shown with a selection of clear calls. Calls come from the whole dose curve; as a rule, active = well fitted inhibition curve with a large enough effect; inconclusive = small, poorly fitted or top-dose-only effect; inactive = flat fitted curve, though single readings scatter. Potencies of inconclusive entries are left out as doubtful fits.
# Molecular target: Beta-lactamase (Escherichia coli (strain K12)) (UniProt P00811)
# Test: qHTS Inhibitors of AmpC Beta-Lactamase (assay with detergent); note: nearly all actives have a fitted effect of over 25% in size;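 for activity change, negative = inhibition: 0% = no-compound wells and -100% = no-enzyme wells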
# Conditions: AmpC hydrolysis of nitrocefin, absorbance 480 nm, 0.01% Triton; activity change, negative = inhibition: at 114 µM (top of the series)
# Procedure, shortened: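 AmpC (5.3 nM in the dispensed reagent) in 20 mM phosphate pH 7.0 with 0.01% (detergent screen) or 0.0001% Triton X-100 was preincubated with compounds for 15 min at room temperature. Nitrocefin was then added from an 800 uM solution, and hydrolysis was followed at 480 nm.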
# Potency is the fitted concentration of half-maximal effect; tags give direction and shape of the fitted curve.
# Chain of UniProt P00811 (P00811 whole entry, looked up): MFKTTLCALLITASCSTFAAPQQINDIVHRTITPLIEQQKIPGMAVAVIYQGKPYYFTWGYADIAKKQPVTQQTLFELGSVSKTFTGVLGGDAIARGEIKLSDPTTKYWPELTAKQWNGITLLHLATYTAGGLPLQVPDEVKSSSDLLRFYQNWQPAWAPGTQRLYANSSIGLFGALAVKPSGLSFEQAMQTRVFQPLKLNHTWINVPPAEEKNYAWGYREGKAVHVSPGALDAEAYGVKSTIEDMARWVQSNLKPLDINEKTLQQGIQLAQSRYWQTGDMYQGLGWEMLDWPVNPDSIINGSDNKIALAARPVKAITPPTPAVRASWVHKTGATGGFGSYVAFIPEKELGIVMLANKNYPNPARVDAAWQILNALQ
SMILES,Potency,"activity change, negative = inhibition"
CCOC(=O)NCc1ccc2[nH]c(C)cc2c1,"inconclusive [inhibitor, full curve, poor fit]",
Cc1cc(C(=O)COC(=O)C2=NNC(=O)CC2)c(C)n1-c1ccccc1,,inactive: -2.52%
CCOc1ncccc1C(=O)OCc1cc(=O)oc2c(C)c(C)ccc12,"inconclusive [inhibitor, partial curve, poor fit]",
O=C(CCCn1c(=O)c2ccccc2n(CC(=O)Nc2ccc(F)cc2F)c1=O)NCc1ccccc1Cl,,inactive: -6.6%
COc1ccc(C)cc1NC(=S)N1CCN(c2ccccn2)CC1,"inconclusive [inhibitor, single point]",
COc1ccc2c(c1)OC[C@H]1[C@H]2N2C(=O)c3cc(OC)ccc3NC(=O)[C@@]2(C)[C@H]1c1ccccc1,"inconclusive [inhibitor, single point]",
O=C(NCc1ccc2c(c1)OCO2)c1nn(-c2ccccc2)c(=O)c2ccccc12,,inactive: -2.03%
O=C(COC(=O)c1cccc(NS(=O)(=O)c2ccc(F)c(F)c2)c1)NC(=O)NC1CCCCC1,"inconclusive [inhibitor, full curve]",
CCOC(=O)Cc1csc(SCc2nc3ccccc3c(=O)[nH]2)n1,,inactive: -10.9%
Cn1c(=O)c2sccc2n2c(CCC(=O)NCc3ccccc3)nnc12,,inactive: 17.1%
O=C(CNC(=O)c1ccco1)OCc1cccc(Cl)c1,"inconclusive [inhibitor, single point]",
COc1ccc(S(=O)(=O)N2c3ccccc3OCC2C(C)(C)C)cc1 (centres undefined),"inconclusive [inhibitor, full curve, poor fit]",
Cc1ccc2c(c1)nc(SCC(O)c1ccc(Br)cc1)n2C (centres undefined),,inactive: 6.75%
Cc1ccc(NC(=O)COc2ccc(/C=C3/NC(=O)NC3=O)cc2)cc1,"inconclusive [inhibitor, partial curve, poor fit]",
COC(=O)CSc1nnc(C)n1-c1ccc(C)cc1,"inconclusive [inhibitor, single point]",
O=C(NN1C(=O)C2C3C=CC(C4CC34)C2C1=O)c1ccccc1Cl (centres undefined),"inconclusive [inhibitor, full curve]",
C=CCC(C#Cc1ccccc1)N(C)C (centres undefined),"inconclusive [inhibitor, full curve, poor fit]",
O=C(COc1ccccc1[N+](=O)[O-])N(Cc1ccccc1)c1ccccn1,"inconclusive [inhibitor, partial curve, poor fit]",
CCC1CCCCN1C(=O)Cn1c(=O)n(CC2CCC(C(=O)NC)CC2)c(=O)c2sccc21 (centres undefined),,inactive: 3.97%
Cc1cc(C)c(S(=O)(=O)NCCCn2ccnc2)c(C)c1,"inconclusive [inhibitor, full curve, poor fit]",
CC12CCC(c3c(CO)nn(-c4ccccc4)c31)C2(C)C (centres undefined),"inconclusive [inhibitor, single point]",
c1ccc(-c2c3ccccc3nc3[nH]c4ccccc4c23)cc1,,inactive: -11.6%
Cc1ccccc1Oc1nc2c(c(=O)n(C)c(=O)n2C)n1Cc1ccc(Br)cc1,,inactive: -2.6%
CCN(CC)S(=O)(=O)c1ccc(NC(=O)c2cnc(C)cn2)cc1,"inconclusive [inhibitor, single point]",
Cc1ccc(Oc2coc3cc(O)ccc3c2=O)cc1,,inactive: -0.875%

SMILES,Potency,"activity change, negative = inhibition"
CCCCn1c(C)cc2c(c1=O)C1O[C@](c3ccc(OC)cc3)(Cc3cc(OC)c(OC)cc31)O2,,inactive: -2.91% [at 22.9 µM]
O=C(O)COc1ccccc1/C=N/NC(=O)CSc1nnc(SCc2ccccc2)s1,,inactive: 4.48%
CC(C)C1=CC(=Nc2ccc(S(N)(=O)=O)cc2)C=C(C(C)C)C1=O,"inconclusive [inhibitor, full curve, poor fit]",
COC(=O)C1=NN(c2cccc(C)c2)C2C(=O)N(c3ccccc3OC)C(=O)C12 (centres undefined),"inconclusive [inhibitor, partial curve, poor fit]",
CC[C@]1(c2cccc(C)c2)C(=O)N(C(=O)OC)N1C(=O)OC,,inactive: -4.36%
COc1ccccc1N1C(=O)CC(N2CCN(c3ccc(F)cc3)CC2)C1=O (centres undefined),"inconclusive [inhibitor, full curve, poor fit]",
N=C1SCC(=O)N1c1ccccc1Cl,,inactive: -0.833%
CC(C)C(NS(=O)(=O)c1cccc2nsnc12)C(=O)NCc1ccc2c(c1)OCO2 (centres undefined),"inconclusive [inhibitor, partial curve]",
O=C(NCC1CCCO1)c1cc(-c2ccco2)nc2ccccc12 (centres undefined),,inactive: -14.9%
CCc1nn(CC(=O)NC2CC2)c(=O)c2cc3ccccc3n12,,inactive: 16.6%
O=C(Cn1c(=O)nc(-c2ccccc2)c2cc(Cl)ccc21)NCCCc1ccccc1,,inactive: 7.74%
Cc1cc(O)c(-c2cc(O)c(C)cc2O)cc1O,"inconclusive [inhibitor, partial curve]",
CCOc1ccc(OCCCC(=O)ON=C(N)c2ccccc2C)cc1,,inactive: 5%
COc1ccc(C2CC(=O)N(CC(=O)Nc3ccc(C(F)(F)F)cc3)c3ccccc3S2)cc1 (centres undefined),,inactive: 23.3%
CC1CCCC2(C1)NC(=S)N(c1ccccc1)N2 (centres undefined),,inactive: -0.0348%
Cc1ccc(NC(=O)C2CCN(S(=O)(=O)c3ccc(N4CCCC4=O)cc3)CC2)cc1Cl,,inactive: -2.56%
COc1cc(NC(=O)c2cc3nc(-c4ccccc4)cc(-c4ccccc4)n3n2)c(OC)cc1Cl,,inactive: 13.5%
CN(C)CC(=O)Nc1cc(C(F)(F)F)ccc1Cl,"inconclusive [inhibitor, single point]",
O=C(OCCOc1cccc(Cl)c1)c1ccc2ncsc2c1,"inconclusive [inhibitor, full curve, poor fit]",
CCn1nc(C)c(C(=O)Nc2cc(Oc3cc(C)cc(C)c3)cc([N+](=O)[O-])c2)c1C,"inconclusive [inhibitor, full curve]",
FC(F)(F)c1cc(-c2ccccc2)nc(NCc2cccs2)n1,"inconclusive [inhibitor, partial curve, poor fit]",
COc1ccc(CCNC(=O)c2cc(S(=O)(=O)N3CCOCC3)cn2C)cc1OC,"inconclusive [inhibitor, partial curve]",
Cc1ccc(CNC(=O)CS(=O)Cc2nc(-c3cccs3)oc2C)cc1 (centres undefined),"inconclusive [inhibitor, full curve, poor fit]",
CCN(CC)CCNC(=O)c1ccc2c(c1)N(Cc1ccccc1)C(=O)c1ccccc1S2=O (centres undefined),,inactive: -12.5%
COc1ccc(N2CCN(C(=O)CCCN3C(=O)c4cccc5cccc(c45)C3=O)CC2)cc1,,inactive: -11.9%

SMILES,Potency,"activity change, negative = inhibition"
COc1ccc2cc(-c3[nH]ncc3CN3CCCCO3)ccc2c1,,inactive: 9.48%
O=C(N/C(=C/c1ccccc1)C(=O)N1CCCCC1)c1ccco1,,inactive: 1.2%
O=C(NCCS(=O)c1ccc(Cl)cc1)c1cccc(Cl)c1 (centres undefined),"inconclusive [inhibitor, full curve, poor fit]",
CCOC(=O)c1ccc(NC(=O)CSc2nc(N)c(NC(=O)c3ccc(Br)o3)c(=O)[nH]2)cc1,"inconclusive [inhibitor, single point]",
Cc1onc(-c2c(Cl)cccc2Cl)c1C(=O)N[C@@H]1C(=O)N2[C@@H]1SC(C)(C)[C@@H]2C(=O)O,active: 0.0447 µM,
CCN(CC(=O)Nc1ccc(NC(C)=O)cc1)C(=O)c1cc2ccccc2oc1=O,"inconclusive [inhibitor, full curve, poor fit]",
O=C(COc1ccc2ccccc2c1)Nc1ccccc1C(=O)O,,inactive: 1.2%
COC(=O)c1ccc(S(=O)(=O)N2CCOCC2)o1,"inconclusive [inhibitor, single point]",
O=C(NC(=S)Nc1ccc(N2CCCCC2)c(Cl)c1)c1ccc2c(c1)OCCO2,,inactive: 3.94%
Cc1ccc(NC(=O)C(C)N2CCCC2)cc1Cl (centres undefined),"inconclusive [inhibitor, single point]",
Cc1ccnn1-c1ccc(C(=O)NCC(c2ccco2)N2CCCC2)cc1 (centres undefined),"inconclusive [inhibitor, single point]",
COc1ccccc1-c1noc(-c2ccccc2C(=O)NCC2CCCO2)n1 (centres undefined),"inconclusive [inhibitor, full curve, poor fit]",
CN(C)/C=C1\N=C(c2ccccc2)OC1=O,,inactive: -1.1%
CN1CCN(CCC(=O)N/N=C/c2ccccn2)CC1,,inactive: -19.3%
COc1ccc(C(C)(C)C)cc1NC(=O)CCCn1c(=O)oc2ccccc21,"inconclusive [inhibitor, partial curve]",
CCNc1ccc(Br)cc(C(=O)/C=C/c2c(Cl)cccc2Cl)c1=O,,inactive: 0.464%
CCOc1ccccc1C1N(c2ccc(OC)cc2)C(=O)C2CCCN21 (centres undefined),"inconclusive [inhibitor, full curve, poor fit]",
Cn1cc([N+](=O)[O-])c(C(=O)Nc2nccs2)n1,,inactive: 4.91%
CC1=CC(=O)C(C(C)C)=C/C1=N/OC(=O)c1cccc([N+](=O)[O-])c1,,inactive: 2.83%
CC(C)(C)OC(=O)N1CCC[C@H]1c1nnc(SCc2c(Cl)cccc2Cl)o1,"inconclusive [inhibitor, single point]",
O=C(NC(=S)Nc1nc2c(ccc3ccccc32)s1)c1cccs1,,inactive: 0.638%
Cc1nc2ccc(-c3ccccc3)cc2o1,,inactive: -8.91%
CCN1CCN(c2ccc(S(=O)(=O)N3CCCCC3)cc2NC(=O)c2ccc(C)o2)CC1,"inconclusive [inhibitor, full curve, poor fit]",
Cc1ccc(C(c2nnnn2C(C)(C)C)N2CCc3ccccc3C2)cc1 (centres undefined),"inconclusive [inhibitor, full curve, poor fit]",
